Hit rate of the full screen: of about 420,000 compounds, about 64,000 (15%) were called active. About 27% were inconclusive and are not listed. Calls follow the shape of the dose curve; as a rule, active = well fitted inhibition curve with a large enough effect; inconclusive = small, poorly fitted or top-dose-only effect; inactive = flat fitted curve, though single readings scatter. Certain results were filed several times, with different values. This list holds those alone. An entry can have further records. Values that stand side by side repeat one measurement (runs, samples, wells, individuals or studies).
Assay: qHTS for Inhibitors of human tyrosyl-DNA phosphodiesterase 1 (TDP1): qHTS in cells in absence of CPT; also: nearly all actives have a fitted effect of over 55% in size
Settings: DT40 Tdp1-/- hTDP1 cells, no CPT, ATP luminescence, 48 h
Potency is read from the fitted curve at half-maximal effect.

Compound | Potency
COc1c(C)c2c(c(O)c1C/C=C(\C)CCC(=O)O)C(=O)OC2 | active: 184, 150, 366, 376, 114 nM [separate samples]

— PubChem BioAssay AID686978 (National Center for Advancing Translational Sciences (NCATS), 2013)
